# Data from PubChem BioAssay AID463173 (ICCB-Longwood Screening Facility, Harvard Medical School, 2010).
# In all, about 52,000 compounds went through this assay and about 1,700 (3.3%) were called active. Cut-off read from the data, not from the text of the source: active = survival mostly below about 52% (no sharp cut-off); inactive = mostly above about 56%. Some of the results follow.
# System: Wild type
# Assay: growth inhibition of S. aureus wild type versus tarO mutant, primary screen, teichoic acid synthesis inhibitors, RN4220, OD600 (AID 463173)
# Settings: S. aureus RN4220 wild type/DeltatarO growth, OD600, 18 h, active compounds read low, screened at 18.75 µg/mL (by protocol)
row,Structure (SMILES),survival
1,CCn1nc(C)c2c(-c3ccccc3)cc(=O)n(C(C)C(=O)Nc3cccc(F)c3)c21 (centres undefined),inactive: 90%
2,Cc1ccc(C2=CC(c3ccccc3C)n3c(nc4ccccc43)N2)cc1 (centres undefined),inactive: 71%
3,C=CCC1Cc2ccccc2C(CC=C)N1 (centres undefined),inactive: 100%
4,Cc1ccn2c(Nc3ccccc3C)c(-c3ccc(N4CCOCC4)cc3)nc2c1,inactive: 113%
5,Cc1ccccc1CCNC(=O)c1ccc(NC(=O)N2CC(C)Sc3ccccc32)cc1 (centres undefined),inactive: 96%
6,O=C(COc1ccc(Cl)cc1)NCC(c1ccco1)S(=O)(=O)c1ccccc1 (centres undefined),inactive: 98%
7,COc1ccccc1NC(=O)c1sc2nc3c(c(C(F)(F)F)c2c1N)CN(C(C)=O)CC3,inactive: 97%
8,Cc1nn(-c2ccc(N3CCOCC3)nn2)c(C)c1CCC(=O)NCc1ccccc1,inactive: 86%
9,Cc1cc(C)c(NC(=O)CSc2n[nH]c(-c3ccccc3Cl)n2)c(C)c1,inactive: 64%
10,COC(=O)C1CC(C)=CC(C)C1C(=O)O (centres undefined),inactive: 100%
11,COc1cc(C2C(=O)N(C3CCCCCC3)CC(=O)N2Cc2ccccc2)ccc1OC(C)C (centres undefined),inactive: 79%
12,C=C(C)Cn1c(=O)c2c(nc3n2CCN3c2cc(C)cc(C)c2)n(C)c1=O,inactive: 83%
13,COc1ccc(N2CCN(C(=O)C3CCN(Cc4nc(-c5ccc(Cl)cc5)oc4C)CC3)CC2)cc1,inactive: 82%
14,CN(C)CCNC(=O)CN1N=C(c2ccccc2)CCC1=O,inactive: 159%
15,COC(=O)c1ccc(NC(=O)CN(Cc2ccccc2)S(=O)(=O)c2ccc(C)cc2)cc1,inactive: 57%
16,O=C(O)c1noc2c1CCCC2,inactive: 92%
17,Cc1cc2ncn(S(=O)(=O)c3ccc(S(=O)(=O)NC4CCCCC4)cc3)c2cc1C,inactive: 100%
18,COc1ccc(NC(=O)c2cnc(Nc3ccc(C)c(Cl)c3)c3ccccc23)c(OC)c1,inactive: 79%
19,CCCSc1ncc(Cl)c(C(=O)Nc2ccc(S(=O)(=O)N3CCC(C)CC3)cc2)n1,inactive: 93%
20,CCOc1ccc(NC(=O)Cn2cc(C(=O)c3ccc(CC)cc3)c(=O)c3cc4c(cc32)OCO4)cc1,inactive: 77%
21,Cc1ccc(Cl)cc1N1CCN(C(=O)c2cnn(C(C)(C)C)c2C2CCN(C(=O)OC(C)(C)C)CC2)CC1,inactive: 75%
22,CCCC(=O)N1CCc2cc(OC)c(OC)cc2C1COc1ccc2c(C)cc(=O)oc2c1 (centres undefined),inactive: 78%
23,COc1ccc2c(c1)CC(C(=O)NCCN1CCN(c3ccccc3F)CC1)CO2 (centres undefined),inactive: 60%

row,Structure (SMILES),survival
1,COc1ccc(CNc2nc(-c3ccc(OC)cc3)cc(C(F)(F)F)n2)cc1,active: -5%
2,CCc1ccc(NC(=O)CN2CCN(C3CCCCC3)C(=O)C2=O)cc1,inactive: 77%
3,CCC(Sc1ncc(S(=O)(=O)c2ccc(C)cc2)c(=O)[nH]1)C(=O)Nc1cc(C)ccc1C (centres undefined),inactive: 124%
4,O=C(Nc1c(C(=O)c2ccc(Cl)cc2)oc2ccccc12)c1cc(=O)c2ccccc2o1,inactive: 113%
5,O=C(Cn1cc(SCc2ccc(Br)cc2)c2ccccc21)N1CCCCC1,inactive: 85%
6,Cc1ccc(/C=C(\C#N)C(=O)Nc2ccc(Br)cc2)o1,inactive: 96%
7,Cn1nnnc1SCCCNCc1cccc(OCc2ccccc2F)c1,inactive: 93%
8,COc1ccc(CCN2C(=O)NC(NC(=O)c3ccccc3OC)(C(F)(F)F)C2=O)cc1OC (centres undefined),inactive: 67%
9,CCc1nc2ccc(C(=O)NCc3ccc(N(C)C)cc3)cc2nc1CC,inactive: 95%
10,Cc1ccc2oc(=O)c(S(=O)(=O)c3ccc(F)cc3)cc2c1,inactive: 76%
11,COc1ccc(NC(=O)c2ccco2)cc1NC(=O)c1ccc(C)c(C)c1,inactive: 69%
12,CCN(C(=O)CSc1nc2ccccc2n1Cc1ccc(C(=O)OC)cc1)c1ccccc1,inactive: 76%
13,CC(C)NC(=O)C1CC(c2ccc(Cl)cc2)=NO1 (centres undefined),inactive: 110%
14,CCn1c(SCC(=O)NC2CCCC2)nnc1C(C)C,inactive: 104%
15,Cc1cccc(C)c1Nc1c(-c2ccc(N3CCOCC3)cc2)nc2ncccn12,inactive: 75%
16,Cc1ccc(-c2cc(C(F)(F)F)n3nc(-c4cccc(Br)c4)cc3n2)cc1,inactive: 68%
17,CC(=O)Nc1ccc(NC(=O)CN2C(=O)CC(c3ccco3)Sc3ccccc32)cc1 (centres undefined),inactive: 99%
18,CCc1cccc2c(C#N)cn(CC(=O)NCCOC)c12,inactive: 100%
19,COc1ccc(N2CCN(C(=O)CN3CCSc4ccccc43)CC2)cc1,inactive: 51%
20,CCn1c(=O)cc(OCC(=O)N2CCN(c3ccc(C(C)=O)cc3)CC2)c2ccccc21,inactive: 92%
21,CN(C(=O)c1c[nH]c2ccc(S(=O)(=O)Nc3cccc(C(F)(F)F)c3)cc2c1=O)C1CCCCC1,inactive: 71%
22,O=C(Cn1nc(Cc2ccncc2)c2ccccc2c1=O)Nc1cccc(C(F)(F)F)c1,inactive: 73%
23,CNC(=O)c1c(NC(=O)c2cc(=O)c3cc(C)c(C)cc3o2)sc2c1CCCC2,inactive: 91%

row,Structure (SMILES),survival
1,CCN(CC)CCN(C(=O)c1ccco1)c1nc2c(C)c(C)ccc2s1,inactive: 73%
2,Cc1ccc(CSCCC(=O)N2CCN(c3ccc(F)cc3)CC2)cc1,inactive: 73%
3,COc1ccccc1CNC(=O)Cn1c(-c2ccc(F)cc2)cc(C(C)=O)c1C,inactive: 78%
4,Cc1c(Cl)cccc1N1CCn2c1nc1c2c(=O)n(CC(=O)O)c(=O)n1C,inactive: 72%
5,COc1ccc(Cl)cc1NC(=O)Nc1c[nH]c(=O)[nH]c1=O,inactive: 83%
6,CCCCNC(=O)CC1Nc2cc(C)c(C)cc2NC1=O (centres undefined),inactive: 74%
7,COc1ccccc1NC(=O)c1nn(C)c2c1CS(=O)(=O)c1ccccc1-2,inactive: 83%
8,CN(C)S(=O)(=O)c1ccc(C(=O)NCCSc2c(-c3ccc(Br)cc3)[nH]c3ccccc23)cc1,inactive: 88%
9,Cc1ccc(NC(=O)C2CCCN(c3ncnc4onc(C)c34)C2)c(Cl)c1 (centres undefined),inactive: 71%
10,O=C(CCSCc1ccc(Cl)cc1)NCCc1ccccc1,active: -6%
11,O=C(NCCc1ccc(Cl)cc1)c1nnc(Cc2ccc(F)cc2)o1,inactive: 99%
12,O=C(Nc1ccc(-c2nc3ccccc3o2)c(O)c1)c1cc(Cl)ccc1Cl,inactive: 67%
13,COc1cc(OC)cc(C(=O)Nc2ccc3nc4c(c(Nc5ccc(OC)c(OC)c5)c3c2)CCCC4)c1,inactive: 134%
14,CCCCc1ccc(Nc2cc(C)nc(-n3nc(C)cc3C)n2)cc1,inactive: 55%
15,CC1CNc2ccccc2NC1=O (centres undefined),inactive: 102%
16,CCN(C(=O)CCS(=O)(=O)c1ccc2c(c1)CCN2C(C)=O)c1cccc(C(F)(F)F)c1,inactive: 81%
17,O=C(NCC(c1cccnc1)N1CCc2ccccc2C1)C(=O)Nc1ccccc1F (centres undefined),inactive: 95%
18,CC1Cc2cc(S(=O)(=O)CCC(=O)Nc3ccc(F)cc3)ccc2N1C(=O)C1CC1 (centres undefined),inactive: 75%
19,O=C(/C=C\c1ccc2c(c1)OCO2)NC1CC(=O)N(c2ccccc2)C1 (centres undefined),inactive: 159%
20,CSc1ccc(CNC(=O)Cn2c(-c3cccs3)cc3cc(F)ccc32)cc1,inactive: 70%
21,CCN1CCc2c(sc(NC(=O)c3ccc(S(=O)(=O)N(C)C4CCCCC4)cc3)c2C(N)=O)C1,inactive: 69%
22,N#CSC1CC(=O)N(c2ccc(F)cc2)C1=O (centres undefined),inactive: 108%
23,Cc1ccccc1-c1nnc(SCC(=O)N(C)c2ccccc2)o1,inactive: 79%

row,Structure (SMILES),survival
1,Clc1cccc(CNNc2nc(N3CCCCC3)nc(N3CCCCC3)n2)c1,inactive: 101%
2,COc1cc(C(=O)N2CCNC(=O)C2CC(=O)Nc2ccc(C)c(C)c2)cc(OC)c1OC (centres undefined),inactive: 66%
3,CCN(CC)C(=O)C1CCN(Cc2cccc(OC)c2OC)CC1,inactive: 108%
4,CCCCNc1nc2c(-c3cccc(C)c3)nnn2c2ccccc12,inactive: 100%
5,Cc1ccc(/C=C/c2onc(C)c2S(=O)(=O)N2CCC(C(=O)Nc3ccc(OC(F)(F)F)cc3)CC2)cc1,inactive: 140%
6,Cc1cccc(OCC(=O)Nc2cccc(C(=O)OCc3cc(=O)n4nc(C(C)C)sc4n3)c2)c1,inactive: 68%
7,Cc1ccc(S(=O)(=O)Nc2cc3c(C(=O)OCc4ccccc4)c(C)oc3c3ccccc23)c(C)c1,inactive: 73%
8,CCc1ccc2[nH]c(=O)c(CN(Cc3ccco3)C(=O)Nc3ccccc3)cc2c1,inactive: 122%
9,COc1ccc2c(c1)c1c(c(=O)n(-c3ccccc3C)c(=O)n1CC(N)=O)n2C,inactive: 82%
10,CCCN(CCC)C(=O)Cn1c(=O)n(CCCCCC(=O)Nc2ccccc2)c(=O)c2sccc21,inactive: 98%
11,Cc1nnc(C)n1/N=C/C=C/c1ccccc1,inactive: 97%
12,COC(=O)c1ccc(NC(=O)Cn2ccn3nc(-c4ccc(OC)cc4)cc3c2=O)cc1,inactive: 70%
13,Cc1ccc(CNC(=O)CCc2c(C)nc3c(-c4ccc(F)cc4)c(C)nn3c2C)cc1,inactive: 82%
14,O=C(/C=C/c1cccs1)NC1CCS(=O)(=O)C1 (centres undefined),inactive: 103%
15,CCc1sc(Nc2cccc(Cl)c2)nc1-c1cc2cccc(OC)c2oc1=O,inactive: 72%
16,COc1ccc(NC(=O)CN2C(=O)C(C)(C)c3cc(S(=O)(=O)N4CCCCC4)ccc32)cc1Cl,inactive: 60%
17,Cc1nn2c3c(cnc2c1-c1ccc(Cl)cc1)C(=O)CC(c1ccc(C(C)C)cc1)C3 (centres undefined),inactive: 78%
18,Cc1c(C(=O)OCc2ccccc2)[nH]c2c1C(=O)CC(c1ccc(N(C)C)cc1)C2 (centres undefined),inactive: 89%
19,Cc1ccc(S(=O)(=O)C(CNC(=O)COc2ccccc2)c2cccs2)cc1 (centres undefined),inactive: 74%
20,COc1cccc(-n2c(SCC(=O)c3ccccc3)nc3c([nH]c4ccccc43)c2=O)c1,inactive: 130%
